IC50 is the fitted dose that halves viability relative to control wells, and lower means more sensitive; where the fit passes the top or lowest dose, that dose stands as a limit. AUC is the area under the same curve over the 256-fold range up to the top dose, as a fraction; values near 1 show little effect. For part of these data: Any top dose called inferred is not printed in the source and was worked back from the curve model. For part of these data: An entry number marks a drug with two screens in the source, which often give different values.
Key:
Experiment in all cases: Viability of human cancer cell lines after 72 h of drug (GDSC screen)
ABT-888 = compound: C[C@]1(c2nc3c(C(N)=O)cccc3[nH]2)CCCN1 [ABT-888]; conditions: top dose 5 µM; top dose inferred
Procedure: (§1)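 Human cancer cell lines in 384-well plates, medium with 10% serum, drug for 72 h over a 256-fold dose range (nine 2-fold or five 4-fold steps up to the top dose). Adherent lines were fixed and stained with the nucleic acid dye Syto60, suspension lines read with resazurin; signal relative to control wells, capped at 0 and 100%. One two-parameter sigmoid per drug and line, fitted in a mixed model over all curves with the slope shared within a line.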

CHIR-99021 = compound: Cc1cnc(-c2cnc(NCCNc3ccc(C#N)cn3)nc2-c2ccc(Cl)cc2Cl)[nH]1 [CHIR-99021]
Procedure: as §1

(5Z)-7-Oxozeaenol = compound: COc1cc(O)c2c(c1)/C=C/C[C@H](O)[C@H](O)C(=O)/C=C\C[C@H](C)OC2=O [(5Z)-7-Oxozeaenol]; conditions: top dose 10 µM; top dose inferred
Procedure: as §1

GSK269962A = compound: CCn1c(-c2nonc2N)nc2cnc(Oc3cccc(NC(=O)c4ccc(OCCN5CCOCC5)cc4)c3)cc21 [GSK269962A]; conditions: top dose 5 µM; screen: GDSC drug entry 1192; top dose inferred
Procedure: as §1

Thapsigargin = compound: C/C=C(/C)C(=O)O[C@H]1C(C)=C2[C@H]([C@@H]1OC(=O)CCCCCCC)[C@@](C)(OC(C)=O)C[C@H](OC(=O)CCC)[C@@]1(O)[C@H]2OC(=O)[C@@]1(C)O [Thapsigargin]; conditions: top dose 0.512 µM; top dose inferred
Procedure: as §1

CP466722 = compound: COc1cc2ncnc(-n3nc(-c4ccccn4)nc3N)c2cc1OC [CP466722]; conditions: top dose 16 µM; top dose inferred
Procedure: as §1

MPS-1-IN-1 = compound: COc1cc(N2CCC(O)CC2)ccc1Nc1cc(Nc2ccccc2S(=O)(=O)C(C)C)c2cc[nH]c2n1 [MPS-1-IN-1]; conditions: top dose 20 µM; top dose inferred
Procedure: as §1

ABT-869 = compound: Cc1ccc(F)c(NC(=O)Nc2ccc(-c3cccc4[nH]nc(N)c34)cc2)c1 [ABT-869]; conditions: top dose 1.024 µM; top dose inferred
Procedure: as §1

KU-55933 = compound: O=c1cc(-c2cccc3c2Sc2ccccc2S3)oc(N2CCOCC2)c1 [KU-55933]; conditions: top dose 10 µM
Procedure: as §1

Zibotentan = compound: COc1nc(C)cnc1NS(=O)(=O)c1cccnc1-c1ccc(-c2nnco2)cc1 [Zibotentan]; conditions: top dose 20 µM; top dose inferred
Procedure: as §1

QL-X-138 = compound: C=CC(=O)Nc1cc(-n2c(=O)ccc3cnc4ccc(-c5cn[nH]c5)cc4c32)ccc1C [QL-X-138]; conditions: top dose 10.24 µM; top dose inferred
Procedure: as §1

[1] = top dose 2.56 µM, screen: GDSC drug entry 154
[2] = top dose 10 µM, screen: GDSC drug entry 1241, top dose inferred

Cell Line	AUC (ABT-888)	IC50 (ABT-888) [µM]	AUC (CHIR-99021; [1])	IC50 (CHIR-99021; [1]) [µM]	AUC (CHIR-99021; [2])	IC50 (CHIR-99021; [2]) [µM]	AUC ((5Z)-7-Oxozeaenol)	IC50 ((5Z)-7-Oxozeaenol) [µM]	AUC (GSK269962A)	IC50 (GSK269962A) [µM]	AUC (Thapsigargin)	IC50 (Thapsigargin) [µM]	AUC (CP466722)	IC50 (CP466722) [µM]	AUC (MPS-1-IN-1)	IC50 (MPS-1-IN-1) [µM]	AUC (ABT-869)	IC50 (ABT-869) [µM]	AUC (KU-55933)	IC50 (KU-55933) [µM]	AUC (Zibotentan)	IC50 (Zibotentan) [µM]	AUC (QL-X-138)	IC50 (QL-X-138) [µM]
SK-N-AS (neuroblastoma, adherent)	0.983	> 5	0.966	> 2.56	0.978	> 10	0.369	0.256	0.969	> 5	0.532	0.0396	0.751	6.02	0.926	> 20	0.981	> 1.02	0.958	> 10	0.983	> 20	0.652	1.81
SK-N-SH (neuroblastoma, adherent)	0.978	> 5	0.978	> 2.56	0.911	> 10	0.504	0.641	0.78	2.04	0.393	0.0163	0.824	9.36	0.732	5.69	0.987	> 1.02	0.971	> 10	0.981	> 20	0.921	> 10.2
SK-OV-3 (ovary, adherent)	0.981	> 5	0.876	> 2.56	0.92	> 10	0.803	6.5	0.862	> 5	0.149	< 0.002	0.697	4.16	0.917	> 20	0.962	> 1.02	0.981	> 10	0.975	> 20	0.76	4.5
SNU-387 (liver, adherent)	0.983	> 5	0.905	> 2.56	0.899	> 10	0.816	6.54	0.967	> 5	0.231	0.00464	0.6	1.95	0.852	18.9	0.967	> 1.02	0.947	> 10	0.973	> 20	0.63	1.54
SNU-423 (liver, adherent)	0.979	> 5	0.835	2.1	0.94	> 10	0.688	2.32	0.738	1.7	0.23	0.00448	0.685	3.64	0.942	> 20	0.982	> 1.02	0.97	> 10	0.982	> 20	0.525	0.758
